This note sets out measurements from PubChem BioAssay (NCATS).

The other results are listed elsewhere or left out. The main result of the screen is listed elsewhere. These columns were measured beside it and carry no call. Compounds called inactive in the main read-out are mostly missing here.

This experiment is described as follows: qHTS Assay for Lipid Storage Modulators (AID 1519). The note with it: Drosophila S3 cells, BODIPY lipid droplet/cell ratio, laser cytometry; measured here: lipid channel max response; cells loaded with oleic acid. Summed up:
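Cells seeded at 5,000 per well were treated with compounds over a concentration series and loaded with oleic acid (400 uM, as added). Lipid droplet fluorescence (488 nm excitation, 500-530 nm channel) was read by laser-scanning cytometry and normalized to 20 uM Triacsin C.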
As to `COc1cccc(Nc2ncc3nc(-c4cc(F)cc(F)c4)c(=O)n(C4CC4)c3n2)c1`, the max response was 9.77%.
For `CNc1ncncc1-c1ccccc1CN(C)C`, the max response was 43.8%.
Turning to `CN(Cc1ccco1)c1ncnc2ccc(-c3ccccc3C#N)cc12`, the max response is 34.1%.
Take `C=CC(C)(O)CCCC(C)CCCC(C)CCCC(C)C` (centres undefined): the max response is 84%.
The same measure for `COc1ccc2c(=O)c(-c3ccccc3)coc2c1`: 123%.
Regarding `N#Cc1cccc(-c2cncnc2NCc2cccnc2)c1`, the max response is 63.1%.
The same measure for `COc1ccccc1CNc1nc(-c2ccc3c(c2)OCO3)nc2ccccc12`: 33.4%.
On to `CS(=O)(=O)Nc1cccc(-c2cncnc2NCc2cccnc2)c1`, for which the max response was 37.5%.
Take `OC(CN1CCC(Cc2ccc(F)cc2)CC1)c1ccc(Cl)cc1` (centres undefined): the max response turned out to be 25.8%.
Turning to `Cc1noc(C)c1-c1nc(Nc2ccc(F)cc2)c2ccccc2n1`, the max response was 42.4%.
The same measure for `COc1cccc(-c2cncnc2NCc2cccnc2)c1`: 52.9%.
Take `CCNc1ncc2nc(-c3ccccc3)c(=O)n(CCc3ccccc3)c2n1`: the max response is 31.1%.
The same measure for `CC(=O)NCCNc1nc(-c2ccc3c(c2)OCO3)nc2ccccc12`: 43.6%; for `CCCn1c(=O)c2[nH]c(-c3ccccc3)nc2n(CCC)c1=O`: 99.9%; for `COc1ccc(C(=O)N2CCC3(CC2)CN(c2cccc(-c4ccccc4)c2)C3)cc1`: 9.86%.
Take `COc1cccc(-c2nccc(NCc3ccccc3OC)n2)c1`: the max response was 19.4%.
In the case of `COCCn1c(=O)c(-c2ccc(OC)cc2)nc2cnc(Oc3ccc(OC)cc3)nc21`, the max response stood at 1.15%.
The same measure for `COc1ccc(Oc2ncc3nc(CCc4ccccc4)c(=O)n(C4CC4)c3n2)cc1`: 20.3%.
With `CN(C)c1nc(-c2cccc(C#N)c2)nc2ccccc12`, the max response came to 26.9%.
